The source gives no read counts; variants with many changes may rest on few reads.
B1: LINE1-full (parent)
chain: UACGUAGGUGGUUUUCCCCUGAUAGUGCUAAGGGGGCCUGGAAGUUUGGACUGGGCAGAGCUCAACACAGCGUGGCAAAGUGGCUGUGGCUAGACUGCCUCUCUGGAUUCCUCGUCACUCAGCAGGGCAUCUCUGAGAGAAAUGCC

Variants of: B1
Experiment: self-cleavage, relative activity (ratio to wild type); higher = more cleavage; in vitro, sequencing; the parent is a self-cleaving ribozyme

Row | Variant | self-cleavage
1 | A94G C111A A124G C145U | 0.08
2 | G32A U62C U132C A138G | 0.06
3 | U13A U81C A117U | 0.99
4 | A22G A57G U109C | 0.64
5 | A31G U46C A117G | 0.92
6 | U26C U85C C113U A121G | 0.29
7 | U23C A42G U108C | 1.35
8 | C51A C56U A129U | 0.42
9 | A22U G60U C128U | 0.01
10 | U26C A65G U112C | 0
11 | U96C U100C A138G A142U | 0.85
12 | U14G A65U U132A | 0.79
13 | U15A A24G A138G | 1.44
14 | A24U A57U A92G U96A | 0.08
15 | U20C C118U A138G | 1.34
16 | U20C U47C A94U A121G A141G | 0.71
17 | A30G A121G A136G | 1.15
18 | G53U C95G A107G U134C | 0.05
19 | A43U U62C A65G A79G | 0
20 | G74A A121G U134C | 1.15
21 | U13C A59G U85C U104A | 0.28
22 | U26C U104C U115C | 1.84
23 | A6G U46C U115C | 0.84
24 | G32C C123U U143C | 0.9

Row | Variant | self-cleavage
25 | U12G A64C A129U U143C | 0.52
26 | U9A U39C U85C U119A | 0
27 | U15A A57U U134C | 0.09
28 | U20C U29C A57C | 0
29 | U52C A129G A140G | 2.16
30 | A30U U102C U132C | 1.6
31 | U15A A30U U46C U81C U91C | 0
32 | G36U U46C U104C A129G | 1.39
33 | G35C U73C G74A G127A | 1.24
34 | A43U G53U A57G A94G U108A U109C | 0.27
35 | U13C U119A A138G | 0.35
36 | G34A C51U U96C | 0.15
37 | U5C A24G U46C A140U | 0.56
38 | U14C U45C G49U A121G | 2.68
39 | U12A G27A A64G U108C A129G | 1.15
40 | A22G G32A U62C A65G A117U | 0.1
41 | U47A U119A U143A | 1.62
42 | U12C U52G U96C | 1.93
43 | U20C U85C U134C | 0.16
44 | U14C U62A U104C | 0.08
45 | U13C U14A C113U | 1.07
46 | A42U G74A A107C | 0.84
47 | U9A U46C A94G | 0
48 | U29A A50G U87A A107G | 0

Row | Variant | self-cleavage
49 | G34U U62C A79G U115C | 0
50 | G53A U87C U108C U130A | 0
51 | U47C A50U U132A | 0
52 | A31U U102C A140G | 1.25
53 | A117U A129G A136G A142G | 1.41
54 | U14C A43G U62C A94G G105A A142G | 0
55 | U96A C101U A129G | 0.09
56 | U109A U132A A138C | 0
57 | A30G A43G A50G C51U U91A U100A C120U | 0.58
58 | U23A A64G A124U | 0.58
59 | U26C U45G G72U U132C | 2.25
60 | U13A U29C U39C U45C | 2.87
61 | U62C A67G A94G | 0
62 | A124G A136G A142G | 1.07
63 | U52A C56U A94G U115C | 0.07
64 | A50G U119C A138G | 0.61
65 | A31G G35A G36U U109C | 1.55
66 | U26C A43U U62C G105A | 0.1
67 | C95U U108C U134A | 0.16
68 | U12C G36A U47A U143A | 1.48
69 | C98U U132C A140G | 0.59
70 | A65U A94G U96A | 0.08
71 | U5C U81G U108A A129G | 2.45
72 | A2G A79G U119C | 0.71

Row | Variant | self-cleavage
73 | U5A C17U A78U U102A U112A A121G | 2.04
74 | U26A A57G U85A | 0.08
75 | A79G U130A A141G | 0.96
76 | U1A U115C U134G | 1.45
77 | U14C U23C G44A | 1.13
78 | U13A U47C A140G | 0
79 | A30G U52A A64C A77U U115C A138G | 0.41
80 | U5C A6U U119C | 1.19
81 | U1C G21A C51U U109C U132C | 0.71
82 | U45C U85C U100C | 0
83 | U39C A59G U91A | 0.13
84 | U13C A64G U81C U130C | 0.84
85 | U23C A43G U62A | 0.09
86 | U23C G127A U130C U132G | 1.27
87 | U12C U81C U108C | 2.45
88 | A107U A121G A140G | 1.79
89 | A31C A59U A67G G139U | 0.29
90 | U52C U85A C90U A136G | 0.07
91 | U73C U100G U115A | 1.08
92 | C84G C98U U115G | 0.09
93 | A50G G127A A140G U143G | 0.33
94 | C71A U96C U119C A121G | 0.03
95 | C38U G54A U73C U132C | 0.61
96 | U29C G53A A64G A124G | 0.4

Row | Variant | self-cleavage
97 | G34A U62C G126U | 0.04
98 | G36A U73C A77G U85C | 0.17
99 | U52A U130A A138G | 0.88
100 | A31U U46C G122U | 1.11
101 | U13C A31G G49A U100C | 0.97
102 | U12G A65G C71A U119A U132C A141G | 0
103 | G36C A50G A77U U104C A142G | 0.38
104 | U45C A69U U73C | 0.14
105 | U14C A64U A124G | 0.26
106 | U15A C19A G72A U100C | 1.11
107 | U9G U39C U96A A141G | 0.06
108 | A42U U62C U85A U115C A121U | 0
109 | U12C G105A U109C A121U | 1.58
110 | U62C U73A G86A | 0.01
111 | U14C C28U U52C A117G A141U | 0.36
112 | A6U G53A A79G A117U | 1.68
113 | C63U U119C U130C | 0.32
114 | U14C C18U U45C | 1.02
115 | U5A C101A U109A A140G | 1.07
116 | A6G C28U G48A A78G | 0.4
117 | A30G A77U U108C | 1.63
118 | U9C U14A A77G | 1.6
119 | A78G A92G U132C | 0
120 | U62A G72A A121U | 0.02

Row | Variant | self-cleavage
121 | A42G A124G U132C | 0.74
122 | U39C G44U U62A A141G | 0.06
123 | U14C C51U A57U A59G C84U U134C A141G | 0.05
124 | U62C U108A A121G | 0.04
125 | A59U G72A U112C U134A | 0.57
126 | U12C U14C G48U U96C U108C | 0.42
127 | U39C A94U A129U A141G | 0.26
128 | U26C A59G G126A U130C | 0.12
129 | U73G A129G U143G | 2.43
130 | U39G A65G G70A U85C | 0.06
131 | G4C G10A G75A U81C | 0.77
132 | A42G A50G U62A A136G | 0.15
133 | U9C U29C U109C | 0.97
134 | A30G U47C A79U A136U | 0.29
135 | U45C C71U U87C | 0.03
136 | U9C A57U A69U C103A | 0.09
137 | U9A U12C C66U G126A | 0.04
138 | U13A U20C U26C A57U G105U U119C | 0.11
139 | C3U G11A U115C A117U | 1.43
140 | G11A U12G U45C | 1.19
141 | U12G G32C G60A | 0.16
142 | G53A U96A C98U | 0.03
143 | U46C A79G U104C | 1.2
144 | U15A U62C U102C | 0.18

Row | Variant | self-cleavage
145 | U26C U39A U46C A64G G105U U132C | 0.38
146 | U5C A57C C110A | 0.04
147 | A30G U52A A141G | 1.16
148 | U15A G27A U102C | 1.75
149 | U9C U46A G114A U143C | 1.3
150 | G48A A67G U85C | 0.14
151 | U45A U73A U134A | 1.26
152 | U15A A65G U81A U85A | 0.05
153 | A30G G33U A64G G74A U87A U96A U104A | 0.06
154 | U13C U45C U115C U119A | 1.8
155 | U5C A65G A141G A142G | 0.55
156 | U14C A77U A79G U132C | 1.24
157 | U39A U45C U47A A94U U119C | 0.38
158 | U52A A64U U87A | 0.05
159 | G58A C118U A141G | 0.04
160 | U47C U87A A138G | 0.09
161 | U5C U14C A30G A43G A59G A78U A79U U100C | 0
162 | U5C U39C U143C | 0.36
163 | U14C U85A U108A | 0.15
164 | U62C A64U A124U | 0.04
165 | G41U G82A A124G | 0.95
166 | G34A U130C U132C | 1.3
167 | U13G U14C A78G | 0.88

Source: the RNAGym collection of RNA variant scans (doi:10.7554/elife.90254)
